# The list shows a part of the results.
# Legend:
# Test in all cases: glycan array binding signal (z-score within array); higher = stronger binding
# Details in all cases: glycan notation: IUPAC condensed, linker removed
# [1] = target: GlcNAc(b1-3)Gal(b1-4)GlcNAc(b1-3)Gal(b1-4)GlcNAc(b1-3)GalNAc
# In short: (§1)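 Negative Z-scores can be read as non-binding. The Z-score is calculated within each array and then averaged across arrays of one protein sequence at different concentrations or buffers and across linkers. Arrays, 3228 in all, were curated from the Consortium for Functional Glycomics database and kept only where the protein sequence was available.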
# [2] = target: GlcNAc(b1-3)Gal(b1-4)GlcNAc(b1-3)GalNAc
# In short: as §1
# [3] = target: GlcNAc(b1-3)Gal(b1-4)GlcNAc(b1-3)[GlcNAc(b1-3)Gal(b1-4)GlcNAc(b1-3)]GalNAc
# In short: as §1
# [4] = target: GlcNAc(b1-3)Gal(b1-4)GlcNAc(b1-6)[Gal(b1-3)]GalNAc
# In short: as §1
# [5] = target: GlcNAc(b1-3)Gal(b1-4)GlcNAc(b1-6)[GlcNAc(b1-3)Gal(b1-3)]GalNAc
# In short: as §1
# [6] = target: GlcNAc(b1-3)Gal(b1-4)GlcNAc(b1-6)[GlcNAc(b1-3)]Gal(b1-4)GlcNAc
# In short: as §1
# [7] = target: GlcNAc(b1-3)GalNAc
# In short: as §1
# [8] = target: GlcNAc(b1-3)Man
# In short: as §1
# [9] = target: GlcNAc(b1-3)[GlcNAc(b1-4)][GlcNAc(b1-6)]GlcNAc
# In short: as §1
# [10] = target: GlcNAc(b1-3)[GlcNAc(b1-6)]Gal(b1-4)GlcNAc
# In short: as §1
# [11] = target: GlcNAc(b1-3)[GlcNAc(b1-6)]GalNAc
# In short: as §1
# [12] = target: GlcNAc(b1-4)Gal(b1-4)GlcNAc
# In short: as §1
# [13] = target: GlcNAc(b1-4)GlcNAc
# In short: as §1
# [14] = target: GlcNAc(b1-4)GlcNAc(b1-4)GlcNAc
# In short: as §1
# [15] = target: GlcNAc(b1-4)GlcNAc(b1-4)GlcNAc(b1-4)GlcNAc(b1-4)GlcNAc
# In short: as §1
# [16] = target: GlcNAc(b1-4)GlcNAc(b1-4)GlcNAc(b1-4)GlcNAc(b1-4)GlcNAc(b1-4)GlcNAc
# In short: as §1
# [17] = target: GlcNAc(b1-4)[GlcNAc(b1-6)]GalNAc
# In short: as §1
# [18] = target: GlcNAc(b1-6)Gal(b1-4)GlcNAc
# In short: as §1
# [19] = target: GlcNAc(b1-6)GalNAc
# In short: as §1
# [20] = target: GlcNAc6S(b1-3)Gal(b1-4)GlcNAc
# In short: as §1
# [21] = target: Kdn(a2-3)Gal(b1-3)GalNAc
# In short: as §1
# [22] = target: Kdn(a2-3)Gal(b1-3)GlcNAc
# In short: as §1
# [23] = target: Kdn(a2-3)Gal(b1-4)Glc
# In short: as §1
# [24] = target: Kdn(a2-3)Gal(b1-4)GlcNAc
# In short: as §1
# [25] = target: Kdn(a2-3)Gal(b1-4)[Fuc(a1-3)]GlcNAc
# In short: as §1
# [26] = target: Kdn(a2-6)Gal(b1-4)GlcNAc
# In short: as §1
# [27] = target: Man(a1-2)Man(a1-2)Man(a1-3)Man
# In short: as §1
# [28] = target: Man(a1-2)Man(a1-2)Man(a1-6)[Man(a1-3)]Man
# In short: as §1
# [29] = target: Man(a1-2)Man(a1-3)Man
# In short: as §1
# [30] = target: Man(a1-2)Man(a1-3)[Man(a1-2)Man(a1-6)]Man
# In short: as §1
# [31] = target: Man(a1-2)Man(a1-3)[Man(a1-2)Man(a1-6)]Man(a1-6)[Man(a1-2)Man(a1-2)Man(a1-3)]Man
# In short: as §1
# [32] = target: Man(a1-2)Man(a1-3)[Man(a1-2)Man(a1-6)]Man(a1-6)[Man(a1-2)Man(a1-2)Man(a1-3)]Man(b1-4)GlcNAc(b1-4)GlcNAc
# In short: as §1
# [33] = target: Man(a1-2)Man(a1-3)[Man(a1-6)]Man(a1-6)[Man(a1-2)Man(a1-3)]Man(b1-4)GlcNAc(b1-4)GlcNAc
# In short: as §1
# [34] = target: Man(a1-2)Man(a1-6)[Man(a1-3)]Man(a1-6)[Man(a1-2)Man(a1-2)Man(a1-3)]Man
# In short: as §1
# [35] = target: Man(a1-2)Man(a1-6)[Man(a1-3)]Man(a1-6)[Man(a1-2)Man(a1-2)Man(a1-3)]Man(b1-4)GlcNAc(b1-4)GlcNAc
# In short: as §1
# [36] = target: Man(a1-3)[Man(a1-6)]Man
# In short: as §1
# [37] = target: Man(a1-3)[Man(a1-6)]Man(a1-6)[Man(a1-2)Man(a1-3)]Man(b1-4)GlcNAc(b1-4)GlcNAc
# In short: as §1
# [38] = target: Man(a1-3)[Man(a1-6)]Man(a1-6)[Man(a1-3)]Man
# In short: as §1
# [39] = target: Man(a1-3)[Man(a1-6)]Man(a1-6)[Man(a1-3)]Man(b1-4)GlcNAc(b1-4)GlcNAc
# In short: as §1
# [40] = target: Man(a1-3)[Man(a1-6)]Man(b1-4)GlcNAc(b1-4)GlcNAc
# In short: as §1
# [41] = target: Man(a1-3)[Man(a1-6)]Man(b1-4)GlcNAc(b1-4)[Fuc(a1-6)]GlcNAc
# In short: as §1
# [42] = target: Man(a1-6)Man
# In short: as §1
# [43] = target: Man(b1-4)GlcNAc
# In short: as §1
# [44] = target: MurNAc(b1-4)GlcNAc
# In short: as §1
# [45] = target: Neu5Ac(a2-3)Gal
# In short: as §1
binder,measurement,setting,value
PLU (Photorhabdus luminiscence) (protein) HHHHHHENLYFQSSIVFASIDPRSNPLQTSSQNYVDIPGLKLDVSKYSNSPCLTALITLNIPTPYASGNNFPGGNFAIVTDQGEQLAYGGFTYSSKIPENSGRMPFTLVARYSLASNVSTIKAQWSNIRGSTVHIDSYASISAVIQCNQLV,glycan array binding signal (z-score),[1],-0.301
same,glycan array binding signal (z-score),[2],-0.284
same,glycan array binding signal (z-score),[3],-0.337
same,glycan array binding signal (z-score),[4],-0.293
same,glycan array binding signal (z-score),[5],-0.212
same,glycan array binding signal (z-score),[6],-0.345
same,glycan array binding signal (z-score),[7],-0.342
same,glycan array binding signal (z-score),[8],-0.295
same,glycan array binding signal (z-score),[9],-0.158
same,glycan array binding signal (z-score),[10],-0.267
same,glycan array binding signal (z-score),[11],-0.188
same,glycan array binding signal (z-score),[12],-0.134
same,glycan array binding signal (z-score),[13],-0.327
same,glycan array binding signal (z-score),[14],-0.336
same,glycan array binding signal (z-score),[15],-0.29
same,glycan array binding signal (z-score),[16],-0.294
same,glycan array binding signal (z-score),[17],-0.269
same,glycan array binding signal (z-score),[18],-0.306
same,glycan array binding signal (z-score),[19],-0.336
same,glycan array binding signal (z-score),[20],-0.297
same,glycan array binding signal (z-score),[21],-0.25
same,glycan array binding signal (z-score),[22],-0.273
same,glycan array binding signal (z-score),[23],-0.256
same,glycan array binding signal (z-score),[24],-0.224
same,glycan array binding signal (z-score),[25],-0.331
same,glycan array binding signal (z-score),[26],-0.225
same,glycan array binding signal (z-score),[27],-0.265
same,glycan array binding signal (z-score),[28],-0.269
same,glycan array binding signal (z-score),[29],-0.32
same,glycan array binding signal (z-score),[30],-0.268
same,glycan array binding signal (z-score),[31],-0.329
same,glycan array binding signal (z-score),[32],-0.198
same,glycan array binding signal (z-score),[33],-0.266
same,glycan array binding signal (z-score),[34],-0.256
same,glycan array binding signal (z-score),[35],-0.197
same,glycan array binding signal (z-score),[36],-0.237
same,glycan array binding signal (z-score),[37],-0.207
same,glycan array binding signal (z-score),[38],-0.093
same,glycan array binding signal (z-score),[39],-0.268
same,glycan array binding signal (z-score),[40],-0.247
same,glycan array binding signal (z-score),[41],-0.286
same,glycan array binding signal (z-score),[42],-0.273
same,glycan array binding signal (z-score),[43],-0.33
same,glycan array binding signal (z-score),[44],-0.314
same,glycan array binding signal (z-score),[45],-0.28

# Reference: the supplement of paper PMC8728848
